Measured values taken from the supplement of paper PMC11417369.
± gives the standard deviation of the averaged measurements. The list shows a part of the results.

The sequences below were run on PfAP2-LT AP2 domain (GST-tagged) (assay: gcPBM binding intensity (ln(normalized median fluorescence intensity)); higher = stronger DNA binding).
How it was run: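 For binding intensity, the highest Masliner-normalised natural-log median intensity across replicate spots of either probe orientation was taken. Protein bound to the array was stained with Alexa488 anti-GST antibody and scanned at 488 nm. The protein, GST-tagged P. falciparum DNA-binding domains from E. coli at about 25 μg on average, had been applied for 1 h to an Agilent 4 × 180k array of primer-extended double-stranded 36-bp intergenic genomic probes and negative controls.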

| Sequence | gcPBM binding intensity (ln) |
| --- | --- |
| TATCATGGTTCGGATTGTACATATATGAATTTTTTT [XGTACX_site7478] | 8.8 ± 0.37 |
| TTCTTTTAAAAATATATTTTAAGAAAATTTAATTTA [GTGCAC_negctrl_site237] | 7.79 ± 0.47 |
| GGATAAGAAAAGAAGTGTACATATATATATATATAT [XGTACX_site8290] | 9.865 ± 0.035 |
| TTTATTTTTTGAAACACACACAAAAAAAATGATACA [CACACA_site1881] | 8.8 ± 0.35 |
| AAAAAAAAAAAAAAGAGTACTTTTTTCACATTCATC [XGTACX_site8795] | 8.6 ± 0.39 |
| AATATATGTTAAAATGGTACACAATTATTATATATT [XGTACX_site6407] | 8.75 ± 0.44 |
| TAAAATGAATAAAATTGTACTTAATAATATTTTAAA [XGTACX_site5532] | 8.23 ± 0.57 |
| AAAAAAAAAAAAATTACACACATACCTATAAGAATA [CACACA_site7097] | 8.9 ± 0.38 |
| TTTTCTTTTTTCTTTTTAACTCTTACATAATAGGTG [CACACA_negctrl_site642] | 8.46 ± 0.5 |
| TAATATATAAATATATGTACATAATTAATAGGATAT [XGTACX_site237] | 8.85 ± 0.4 |
| GGATATATAAGATACACACACAAATTAAATATAAAA [CACACA_site7333] | 9.48 ± 0.54 |
| TATTCCTAATTTAAAAGTACATATATATATATATAT [XGTACX_site3008] | 9.29 ± 0.42 |
| CTTATAATATTACGGGTGCTATAAATACATTATATT | 8.83 ± 0.3 |
| TAAATCAAAAACAACAAGTCATATTAAAGATGGTAT [CACACA_negctrl_site1321] | 8.89 ± 0.45 |
| TTGTTTCAAAATTAAACACACACAAAAAAAAAAAAA [CACACA_site8856] | 8.86 ± 0.52 |
| AAGGAAAACAGTAGGTGTACCAAACGTCCTAGGAAC [XGTACX_site3659] | 9.18 ± 0.45 |
| TATATTTATATCATCACACATTTTTTTTTTCTTTTT [CACACA_site6150] | 8.64 ± 0.52 |
| ATATATAATAATTGTAGTACAATTAATAAATAAAAT [XGTACX_site3840] | 8.85 ± 0.52 |
| TATATATATATAATTTGTACACACAAATATGCATAT [XGTACX_site7297] | 9.19 ± 0.33 |
| TCCTCATTTTATCATACACACTTGTTTATATGTGTG [CACACA_site6548] | 9.23 ± 0.38 |
| ATACGATTGCAGTCAAAAAGGAAAATATAAAAAAAG [XGTACX_negctrl_site124] | 8.7 ± 0.57 |
| TTATCATTTTAAATCACACACATATATAAATATGTA [CACACA_site7359] | 8.77 ± 0.28 |

| Sequence | gcPBM binding intensity (ln) |
| --- | --- |
| AATATTTATAAATTTACACACACACCCGTGAACATA [CACACA_site1910] | 9.6 ± 0.36 |
| TGGGGTATTAAAAAAACACACAAAAAAAATATAAAG [CACACA_site1915] | 8.74 ± 0.64 |
| GATAATAATAAGTGTACACATATATTTAGAAGAGTA [CACACA_site4245] | 9.04 ± 0.54 |
| AAAATGTATATTGGCGCATGTAAACAAATACTATAC [TGCATGCA_site385] | 9.27 ± 0.42 |
| TCAAAATGTGACATAAAAGAAAAAAAAAAAAAAAAA [CACACA_negctrl_site1092] | 8.49 ± 0.45 |
| ATATATATGTATGTATATATATATATATATGTTTGA [CACACA_negctrl_site107] | 9.24 ± 0.2 |
| TTTTTTTTTCTGTATACACACAAAATTTATTTTTTA [CACACA_site2873] | 8.84 ± 0.5 |
| TTAATAACGTAATGTAAATGTTTCATACCCTTTTTT [CACACA_negctrl_site988] | 8.61 ± 0.42 |
| AAAGAAGGGGGGGGAAAAAAAAATAAAAGAGGAAAA [XGTACX_negctrl_site92] | 8.82 ± 0.41 |
| ATAAAATAAAAACATGCACACTTTATTTTTTTTAAG [CACACA_site5545] | 8.63 ± 0.42 |
| AAATTTAGTAAAAAATGTACGTAAAATGTAAAATAT [XGTACX_site1314] | 9.01 ± 0.44 |
| ATACTAACATTTTTTTGTACATATAACTATAAAATA [XGTACX_site1033] | 8.5 ± 0.44 |
| AAGGTAAACGGACACACACACATACAAAAAAAAAAA [CACACA_site5961] | 9.77 ± 0.67 |
| TGATATTATAGATATACACACATGTATGTATTTATA [CACACA_site6758] | 8.97 ± 0.35 |
| AGACCTATGATATATACACACATATAAATAAATATA [CACACA_site6725] | 9.09 ± 0.4 |
| TTATTAAATATAAATATGTATCTTTTATGTTATATT [CACACA_negctrl_site306] | 8.59 ± 0.43 |
| TATTTTACGACATACCAAAAAAAAAAAAAAAAAATA [CACACA_negctrl_site1254] | 8.33 ± 0.45 |
| AAAAAAAAAAGACACACACACATAGACCTCCAATAG [CACACA_site7646] | 9.79 ± 0.25 |
| TAAATCCGCAGGCACACACACATATTAATAAAAAAA [CACACA_site3991] | 9.59 ± 0.56 |
| AATGTTAAACTATGATGTACGGTTAAAAATATAATT [XGTACX_site893] | 8.72 ± 0.42 |
| TATATATTATATAAATAAATAAATATATATATTTAT [TGCATGCA_negctrl_site270] | 8.23 ± 0.36 |
| AATGATTTTGATTAACGTACGTACAAATATATATAT [XGTACX_site6604] | 8.78 ± 0.32 |

| Sequence | gcPBM binding intensity (ln) |
| --- | --- |
| AAAAAAAATACAAAAAGTACAAAAAATACAAAAAAA [XGTACX_site8844] | 8.88 ± 0.56 |
| ATGTATATATATATATGTACATATTTTTTATATGTA [XGTACX_site441] | 8.83 ± 0.38 |
| TTTAAAATAAATTAATAGAACAAAAATAAAATGATT [GTGCAC_negctrl_site375] | 8.48 ± 0.39 |
| TTCTTTTTTTAAAGAAGTACTATATTTTAAATTATA [XGTACX_site5059] | 8.2 ± 0.52 |
| AATTTTATTACTTTTACACACCTATATATCATTCAT [CACACA_site7525] | 9.13 ± 0.43 |
| TAGGGATTATACCACACACACATACACATAAATATA [CACACA_site3178] | 9.63 ± 0.33 |
| AAGAATAAGGAAAAATGTACAGAATGCACATATGAA [XGTACX_site4705] | 8.89 ± 0.48 |
| ACCTTAAATAATACATGTACAAAAAAATTTATAATA [XGTACX_site1043] | 8.76 ± 0.52 |
| TTTCAAATGATTAAGTGTACATGTTTGCTTGCTCTT [XGTACX_site4697] | 9.01 ± 0.38 |
| TTTTTTTTTGTTATGTTGCACTTTGCCATATTATTA [GTGCAC_site9844] | 8.93 ± 0.49 |
| AATAATAAAAAAAGTGCACACACATAATATATATAT [CACACA_site9100] | 9.34 ± 0.36 |
| TATAAAAAAATAAAAGGAATATACTTGCAAAGGGTA [CACACA_negctrl_site1438] | 8.86 ± 0.39 |
| AACAATATATTGATATTATTTTAAGTGATTATATAT [XGTACX_negctrl_site205] | 8.57 ± 0.33 |
| ATGTAAGTAATTATCTGTACACATAATATATATATA [XGTACX_site2618] | 8.99 ± 0.42 |
| AATATAAAAAATAATACACACACATGGCGACAAAAT [CACACA_site8765] | 9.69 ± 0.28 |
| AGGATAAAAGTTATGGTGCATTAACCTATTTAAATA | 8.56 ± 0.42 |
| TATATAGGTATATATACACACAACGGTTATAAATAT [CACACA_site4759] | 9.13 ± 0.33 |
| TATAAAGACACGAAAACACACATATGTAAATATATA [CACACA_site8056] | 9.21 ± 0.4 |
| TACATATTACTATTCAGTACATATTTTTTTTTCATT [XGTACX_site7468] | 8.81 ± 0.57 |
| TAGTTTTGAAAACAAACACACAAAAAAAAAAAAAAA [CACACA_site1692] | 8.63 ± 0.45 |
| CACATAAATAATTAAACACACATTGTTCTAGACAAT [CACACA_site2378] | 8.88 ± 0.41 |
| TTTGAGTTACTATTCACACAAAATGGATAAATTAAT [CACACA_site5626] | 8.59 ± 0.4 |

| Sequence | gcPBM binding intensity (ln) |
| --- | --- |
| AAACCGTGGGAGCACACACACACACCCACCCATATA [CACACA_site332] | 9.88 ± 0.26 |
| ATAATAACAAAATATTAACACACATAACATATTATA [CACACA_site8906] | 9 ± 0.37 |
| ACAAAACAAAACAAAAGTACACAAAATAAATAAGAT [XGTACX_site6497] | 9.32 ± 0.59 |
| AATCCTTAAAATTAACGTACGAAATGAATTTATTAA [XGTACX_site956] | 8.46 ± 0.33 |
| TGGAGGTCATTACACAGTACCCAGGAAATCTACGGA [XGTACX_site2004] | 8.61 ± 0.62 |
| ATAAATAAATACTAGGCACACACACCGATATATATA [CACACA_site8649] | 9.76 ± 0.22 |
| AAAATAAACCCAGACACACTCATTAAAAAATATCAT [CACACA_site5903] | 9.08 ± 0.47 |
| TATTAATCCTTTTGCTTGGAAACATTCAAAAGGAAG [CACACA_negctrl_site1129] | 8.18 ± 0.41 |
| ATATATATAAAATATGGTACAGAAAAAGTCTTGTTT [XGTACX_site8868] | 8.96 ± 0.41 |
| TTCTGTCAATATGCTTGTACGAAATATTTCGTAATT [XGTACX_site3182] | 8.95 ± 0.33 |
| ATGTATATATTCAATTGTACATGTTATATTTACACA [XGTACX_site1125] | 8.82 ± 0.47 |
| ATTGTATTAAAATGCACACATATCAAGAGGAATTTT [CACACA_site283] | 8.99 ± 0.29 |
| AAAGAATAATTAAATACACACATATTGCAGTAAAAA [CACACA_site7201] | 8.93 ± 0.51 |
| TGTAAAATATAAAAAGTGCATTTCTTTTAATATGAT | 8.49 ± 0.51 |
| ATATTAAAATTTTAATGTACATGCGTATGTAGGAAT [XGTACX_site1673] | 9.23 ± 0.38 |
| TATATTATATTTTTATGTACTTATTTATTTTGTTTC [XGTACX_site6145] | 8.93 ± 0.49 |
| AACATATATTTTTAATGTACAAGGTTGTAAAGAACT [XGTACX_site1405] | 8.96 ± 0.53 |
| AAAGATATAAATTACTGTACTAATGAAATTGGTAAA [XGTACX_site3582] | 8.57 ± 0.42 |
| TTAAATAATGCCACCAGTACCCACTGAAAGAAAAAA [XGTACX_site5013] | 8.82 ± 0.49 |
| CAATTGATATTGAAATGTACTTTTTAGATGAACCTT [XGTACX_site2354] | 8.59 ± 0.4 |
| TATATTAAAATTTACTGTACTTTTTTTATTTTAAAA [XGTACX_site4077] | 8.36 ± 0.46 |
| AAGATAACAAGTAATCAATCTAATTATTAATTATAT [CACACA_negctrl_site1713] | 8.52 ± 0.46 |
